Data published in patent publication US20100021460A1 (Genentech, published 2010).

B1: non-depleting anti-CD4 antibody Variant D (antibody, human IgG1, kappa, N297A)
light: DIVMTQSPDSLAVSLGERATINCKASQSVDYDGDSYMNWYQQKPGQPPKLLIYVASNLESGVPDRFSGSGSGTDFTLTISSLQAEDVAVYYCQQSLQDPPTFGGGTKVEIKRTVAAPSVFIFPPSDEQLKSGTASVVCLLNNFYPREAKVQWKVDNALQSGNSQESVTEQDSKDSTYSLSSTLTLSKADYEKHKVYACEVTHQGLSSPVTKSFNRGEC
heavy: QVQLVQSGAEVKKPGASVKVSCKASGYTFTAYVISWVRQAPGQGLEWMGEIYPGSGSSYYNEKFKGRVTMTRDTSTSTVYMELSSLRSEDTAVYYCARSGDGSRFVYWGQGTLVTVSS[human IgG1 constant region with N297A N434H (EU numbers) omitted]
notes: Human IgG1 constant regions; N297A (aglycosylated) and N434H; Iodinated (125I) tracer plus unlabeled antibody in the Jurkat assay; also called LC1/HC4
B2: non-depleting anti-CD4 antibody Variant B (antibody, human IgG1, kappa, N297A)
light: B1 light
heavy: QVQLVQSGAEVKKPGASVKVSCKASGYTFTAYVISWVRQAPGQGLEWMGEIYPGSGSSYYNEKFKGRVTMTRDTSTSTVYMELSSLRSEDTAVYYCARSGDGSRFVYWGQGTLVTVSS[human IgG1 constant region with changes omitted]
notes: Humanized, human IgG1 constant regions; N297A (aglycosylated), wild-type N434; Iodinated (125I) tracer plus unlabeled antibody in the Jurkat assay; also called anti-CD4 Variant B; LC1/HC2

Legend:
[1] = biological target: T1, soluble histidine-tagged human FcRn (human, UniProt P55899 partial chain); assay: BIAcore solution competition at pH 6, reference Variant B
T1 construct: Soluble, expressed transiently in CHO cells, nickel-column purified, histidine tag kept
Description: (§1) The IC₅₀s of Variant B and Variant D binding to human and baboon FcRn were measured using the BIAcore 3000 surface plasmon resonance system (BIAcore Inc, Piscataway, N.J.; Lofas and Johnsson 1990; Karlsson et al. 1991). The amine-coupling method used for immobilization of a control monoclonal antibody which contains human IgG1 Fc similar to that of Variant D but lacking the modifications of Variant D (Control Antibody) onto a carboxymethylated dextran biosensor chip (Sensor Chip CM5, BIAcore) was essentially as described in the manufacturer's instructions (BIAcore 1991; Johnsson et al. 1991). Briefly, the biosensor chip was activated using N-ethyl-N′-(3-dimethylaminopropyl) carbodiimide hydrochloride (EDC HCl) mixed with N-hydroxysuccinimide (NHS). Control Antibody, diluted to 12 μg/ml in 10 mM sodium acetate, pH 4, was injected over the chip to give an immobilized antibody signal of approximately 3000 RUs. Unreacted succinimide groups were then blocked with an injection of 1 M ethanolamine, giving a final density of approximately 2000 RUs of Control Antibody.
(§2) Soluble histidine-tagged human FcRn (SEQ ID NO: 13) and soluble histidine-tagged baboon FcRn (SEQ ID NO: 14) were produced from transient expression in CHO cells using standard methods well known to one skilled in the art. […]

[2] = biological target: T2, soluble histidine-tagged baboon FcRn (baboon, UniProt Q8SPV9 24-297, limits assumed); assay: as above
T2 construct: Soluble, expressed transiently in CHO cells, nickel-column purified, histidine tag kept
T2 chain: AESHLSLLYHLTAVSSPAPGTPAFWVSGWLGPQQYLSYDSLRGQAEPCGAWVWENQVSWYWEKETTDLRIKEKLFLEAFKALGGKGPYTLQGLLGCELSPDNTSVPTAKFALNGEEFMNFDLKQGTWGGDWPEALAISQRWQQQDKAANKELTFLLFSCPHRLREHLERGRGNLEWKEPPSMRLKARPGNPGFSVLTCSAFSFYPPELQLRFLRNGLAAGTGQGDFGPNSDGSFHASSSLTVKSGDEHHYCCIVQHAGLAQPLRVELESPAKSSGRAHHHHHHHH
Description: as §1, §2

[3] = biological target: T3, human CD4 (human, UniProt P01730); assay: equilibrium binding on CD4+ Jurkat cells, 125I-antibody displaced by unlabeled antibody, 4 h at 4 C
T3 construct: whole, on cells; primary human CD4+ T cells; T cells of RA patients in vivo; also called CD4 on Jurkat cells; CD4 on human CD4+ T cells
Description: The Jurkat human T-cell leukemic line expresses CD4 (see FIG. 4A) and was utilized to determine the affinity of Variant B and Variant D for CD4 by equilibrium binding analysis. Variant B is similar to Variant D except that Variant B carries the normal (wild-type) amino acid at position 434, N434 (see Table 2). Equilibrium binding measurements were carried out as follows.
CD4+ Jurkat cells were cultured in growth media, which contained RPMI 1640 media supplemented with 10% fetal bovine serum (FBS), 2 mM L-glutamine, 1× penicillin-streptomycin, at 37° C. in 5% CO₂. Cells were washed with binding buffer (50:50 DMEM/F12 with 2% FBS and 50 mM Hepes, pH 7.2) and were placed into 96-well plates at approximately 2.3×10⁵ cells/well in 0.2 mL of binding buffer. The non-depleting anti-CD4 antibody variants (Variant B and Variant D) were iodinated using the Iodogen method. […] The filters were counted on a Wallac Wizard 1470 gamma counter (Perkin Elmer Life and Analytical Sciences Inc.; Wellesley, Mass.). The binding data were evaluated using NewLigand software (Genentech), which uses the non-linear regression fitting algorithm of Munson and Rodbard, Anal. Biochem. 107:220-39, 1980, to determine the binding affinity of the antibody.

[4] = biological target: T1, soluble histidine-tagged human FcRn; assay: BIAcore solution competition, 100 nM FcRn preincubated with antibody, free FcRn captured on immobilized Control Antibody, pH 6.0
From the text: (§3) Soluble histidine-tagged human FcRn (SEQ ID NO: 13) and soluble histidine-tagged baboon FcRn (SEQ ID NO: 14) were produced from transient expression in CHO cells using standard methods well known to one skilled in the art. Each of the histidine-tagged FcRn polypeptides was purified using nickel column chromatography according to methods well known to one skilled in the art. The histidine tags were not removed from the FcRn polypeptides following purification. For simplicity, the histidine-tagged FcRn polypeptides are subsequently referred to as “FcRn” in the discussion of assay methodology and results below but it is understood that the histidine tags were still attached to the polypeptides. Each of Variant B and Variant D were serially diluted in running buffer (PBS containing 0.05% Tween-20 pH 6) and incubated at room temperature with a constant (100 nM) concentration of FcRn for 30 min before injection. […]
(§4) Concentrations of free FcRn were plotted against the log of antibody concentrations in GraphPad Prism. The IC₅₀ of binding was determined by fitting the data to a 4 parameter curve (Y=m4+(m3−m4)/(1+10̂((log IC50−X)*Hillslope)) where m3 is the maximal signal, m4 is the minimal signal and the Hillslope is a slope constant. Experiments were repeated at least three times, and the IC₅₀s were reported with standard error of the mean (SEM).

[5] = biological target: T2, soluble histidine-tagged baboon FcRn; assay: as above
From the text: as §3, §4

[6] = biological target: T4, human FcγRIIIA (F158 allotype) extracellular domain-Gly/6×His/GST fusion (human, UniProt P08637 partial chain); assay: ELISA, receptor captured by anti-GST, antibody as multimers
T4 construct: extracellular domain; Captured on anti-GST coated plates; also called CD16 F-158; not shown: C-terminal Gly/6×His/glutathione S-transferase (GST) tag
Description: (§5) The binding affinities of various antibodies to FcγRIA, FcγRIIA, FcγRIIB, and two allotypes of FcγRIIIA (F158 and V158) were measured in ELISA-based ligand-binding assays using the respective recombinant Fcγ receptors. Purified human Fcγ receptors were expressed as fusion proteins containing the extracellular domain of the receptor γ chain linked to a Gly/6×His/glutathione S-transferase (GST) polypeptide tag at the C-terminus. The binding affinities of antibodies to those human Fcγ receptors were assayed as follows.
(§6) Plates were coated with an anti-GST antibody (Genentech) and blocked with bovine serum albumin (BSA). After washing with phosphate-buffered saline (PBS) containing 0.05% Tween-20 with an ELx405™ plate washer (Biotek Instruments; Winooski, Vt.), Fcγ receptors were added to the plate at 25 ng/well and incubated at room temperature for 1 hour. After the plates were washed, serial dilutions of test antibodies were added as multimeric complexes and the plates were incubated at room temperature for 2 hours.

[7] = biological target: T5, human FcγRIIIA (V158 allotype) extracellular domain-Gly/6×His/GST fusion (human, UniProt P08637 partial chain); assay: as above
T5 construct: extracellular domain; Captured on anti-GST coated plates; Residue 158 is counted on the mature receptor, not on the precursor entry; also called CD16 V-158; not shown: C-terminal Gly/6×His/glutathione S-transferase (GST) tag
Description: as §5, §6

[8] = biological target: T6, human FcγRIIB extracellular domain-Gly/6×His/GST fusion (human, UniProt P31994 43-217); assay: as above
T6 construct: extracellular domain; Captured on anti-GST coated plates; also called CD32B; not shown: C-terminal Gly/6×His/glutathione S-transferase (GST) tag
T6 sequence (looked up): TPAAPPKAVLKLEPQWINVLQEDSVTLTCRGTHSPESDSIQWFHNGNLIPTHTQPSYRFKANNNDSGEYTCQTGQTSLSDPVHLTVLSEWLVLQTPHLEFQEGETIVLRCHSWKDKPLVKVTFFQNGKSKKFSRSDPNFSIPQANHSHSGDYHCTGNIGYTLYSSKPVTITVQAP
Description: as §5, §6

[9] = biological target: T3, human CD4; assay: flow cytometry on primary human CD4+ T cells, mean of four experiments
Description: To characterize binding of Variant D to primary human CD4+ T cells and to determine its cross-reactivity to CD4 from non-human primate species, saturation binding titration experiments were performed on cells from humans, baboons, cynomolgus monkeys, and rhesus monkeys. Binding was analyzed and quantified by flow cytometry as described below.
Fresh human blood from a healthy human donor was obtained. Non-human primate blood was obtained from Southwest Foundation for Biomedical Research in San Antonio, Tex. (i.e., baboon, cynomolgus monkey, and rhesus monkey). Each sample of blood was diluted with an equivalent volume of PBS, overlaid on Ficoll (GE Healthcare; Princeton, N.J.), then centrifuged to isolate mononuclear cells. […] Cells were then incubated with Fcγ-specific human IgG PE-conjugated antibody (Jackson ImmunoResearch Laboratories, Inc.; West Grove, Pa.) at 20 μg/mL for another 30 minutes on ice to detect the quantity of anti-CD4 antibody bound. […] Samples were run on a FACSCalibur flow cytometer (BD Biosciences) and analyzed using Flowjo software. The mean fluorescence intensity (MFI) of CD4 staining was plotted as a function of the concentration of Variant D present during binding. Half-maximal effective concentration (EC50) values were calculated from the binding curves using a four-parameter curve-fitting algorithm (KaleidaGraph™ software).

[10] = biological target: T7, human FcγRIA extracellular domain-Gly/6×His/GST fusion (human, UniProt P12314 16-292); assay: ELISA, receptor captured by anti-GST, monomeric antibody
T7 construct: extracellular domain; Captured on anti-GST coated plates; also called FcγR1; not shown: C-terminal Gly/6×His/glutathione S-transferase (GST) tag
Description: as §6
For the high-affinity receptor (FcγRIA), the antibodies were assayed as monomers without cross-linking. The rest of the assay procedures were the same as those for low-affinity receptors.

T7 sequence (P12314 16-292): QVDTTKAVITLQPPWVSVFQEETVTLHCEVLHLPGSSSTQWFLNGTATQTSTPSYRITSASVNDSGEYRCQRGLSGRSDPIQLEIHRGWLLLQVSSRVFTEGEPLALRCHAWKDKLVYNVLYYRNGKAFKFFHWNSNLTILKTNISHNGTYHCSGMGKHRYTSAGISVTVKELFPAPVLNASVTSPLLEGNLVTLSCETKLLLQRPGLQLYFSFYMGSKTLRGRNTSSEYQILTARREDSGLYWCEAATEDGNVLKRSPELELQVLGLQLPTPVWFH

Binder | fold tighter binding than Variant B [1] [fold] | fold tighter binding than Variant B [2] [fold] | Kd [3] [nM] | IC50 [4] [nM] | IC50 [5] [nM] | binding result [6] | binding result [7] | binding result [8] | EC50 [9] [nM] | binding result [10]
B1 | ~3.5 | ~3.5 | 0.065 | 144 | 160 | binds | binds | binds | 0.17 | binds
B2 | – | – | 0.062 | – | – | – | – | – | – | –
